# In PMC4336329 (PLoS ONE, 2015):
# Hit rate of the full screen: of about 310,000 compounds, about 2,200 (0.71%) showed an effect of 50% or more. The effect is printed as a negative number. This is one part of the list.
# Biological target: human ether-à-go-go-related gene (hERG) potassium channel (human, UniProt Q12809)
# Test: primary screen, population patch clamp on CHO cells stably expressing hERG
# Sequence of human ether-à-go-go-related gene (hERG) potassium channel (Q12809 whole entry, looked up): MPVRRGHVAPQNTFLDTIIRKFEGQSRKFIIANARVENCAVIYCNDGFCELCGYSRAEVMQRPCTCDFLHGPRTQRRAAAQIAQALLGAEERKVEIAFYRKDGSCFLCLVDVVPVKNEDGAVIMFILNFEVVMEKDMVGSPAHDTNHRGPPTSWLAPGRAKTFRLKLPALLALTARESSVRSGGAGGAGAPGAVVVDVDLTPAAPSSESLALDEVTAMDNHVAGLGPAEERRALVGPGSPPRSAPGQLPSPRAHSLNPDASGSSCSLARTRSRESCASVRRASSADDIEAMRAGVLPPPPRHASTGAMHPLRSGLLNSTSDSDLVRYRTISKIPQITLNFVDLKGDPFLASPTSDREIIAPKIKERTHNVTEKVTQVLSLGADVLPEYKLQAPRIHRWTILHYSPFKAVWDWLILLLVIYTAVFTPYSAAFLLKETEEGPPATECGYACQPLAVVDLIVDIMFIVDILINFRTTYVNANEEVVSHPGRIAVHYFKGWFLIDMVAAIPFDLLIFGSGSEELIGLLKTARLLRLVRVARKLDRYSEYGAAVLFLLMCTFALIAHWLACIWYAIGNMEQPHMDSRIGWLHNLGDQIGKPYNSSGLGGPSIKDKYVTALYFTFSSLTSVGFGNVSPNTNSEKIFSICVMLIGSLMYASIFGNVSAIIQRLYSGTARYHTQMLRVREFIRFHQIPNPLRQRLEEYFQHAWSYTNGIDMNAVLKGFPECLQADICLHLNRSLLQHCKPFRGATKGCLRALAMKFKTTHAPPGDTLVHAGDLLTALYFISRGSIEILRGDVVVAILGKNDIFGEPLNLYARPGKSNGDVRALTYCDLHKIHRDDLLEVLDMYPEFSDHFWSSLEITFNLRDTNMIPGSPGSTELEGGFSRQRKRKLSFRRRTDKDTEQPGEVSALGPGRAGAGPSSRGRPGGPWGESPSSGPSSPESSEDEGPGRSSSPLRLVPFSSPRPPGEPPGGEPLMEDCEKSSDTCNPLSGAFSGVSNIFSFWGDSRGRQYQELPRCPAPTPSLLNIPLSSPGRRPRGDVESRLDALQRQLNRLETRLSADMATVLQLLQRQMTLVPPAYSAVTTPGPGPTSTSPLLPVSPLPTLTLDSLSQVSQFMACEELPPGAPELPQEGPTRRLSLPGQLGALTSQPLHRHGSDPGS
row,Structure (SMILES),"hERG current change (%, negative = inhibition) at 1uM"
1,C=CCn1c(SCC(=O)N(CC)C2CCS(=O)(=O)C2)nc2cc(C(=O)O)ccc2c1=O (stereo not shown),16.4%
2,Nc1nc(CN2CCCCCC2)nc(Nc2ccc(F)cc2)n1,-48.8%
3,CCn1ncc(-c2csc(N)n2)c1C,5.96%
4,O=C(O)Cn1nc(C(F)(F)F)c2c1CCC2,20.5%
5,Cn1c(=O)c2c(nc(N3CCC(C(N)=O)CC3)n2CCSc2nc3ccccc3s2)n(C)c1=O,6.6%
6,O=C1CS/C(=C\S(=O)(=O)c2ccc(Cl)cc2)N1,6.44%
7,COc1cc(/C=N\NC(=O)c2ccc(Cn3cc(Br)c([N+](=O)[O-])n3)o2)cc(OC)c1O,7.61%
8,O=C(Cn1nc(C(F)F)cc1C(F)F)N/N=C/c1ccc2c(c1)OCO2,22.5%
9,CCN(Cc1ccccc1)C(=O)c1ccc(Cl)cc1[N+](=O)[O-],7.7%
10,Cc1cc(C(=O)CSc2nnc(N)s2)c(C)n1Cc1ccco1,31%
11,CCOC(=O)c1cc(-c2ccccc2)sc1NC(=O)CSc1nnnn1C,7.23%
12,CCN(CC)c1ncnc2c1sc1nc(C)cc(C)c12,4.82%
13,Cc1ccc(S(=O)(=O)CCC(=O)Oc2ccc3c(C)cc(=O)oc3c2)cc1,8.87%
14,CCCCN(C)C(=S)Nc1ccc2nc3n(c(=O)c2c1)CCCCC3,-8.53%
15,COc1cc(/C=C/C(=O)c2cccc([N+](=O)[O-])c2)cc(OC)c1OC,11%
16,Cc1ccc2oc(-c3ccccc3C(=O)O)cc(=O)c2c1,2.7%
17,Cc1ccc(CNC(=O)CSCc2cccc(F)c2)cc1,6.87%
18,C=CCn1c(CNC(=O)c2cccs2)nnc1SCC(=O)c1ccc(Br)cc1,-9.68%
19,Cc1cccc(NC(=O)c2ccc(S(=O)(=O)N(C)C)cc2)n1,2.17%
20,Cc1ccc(NC(=O)ON=C2CCCC2)cc1,5.05%
21,Nc1nnc(Sc2ccc(Cl)cc2[N+](=O)[O-])s1,11.7%
22,CN1CCNC(=O)C1CC(=O)N1CC=C(c2ccc(F)cc2)CC1 (stereo not shown),16.2%

row,Structure (SMILES),"hERG current change (%, negative = inhibition) at 1uM"
1,CC(NCc1ccc([N+](=O)[O-])cc1)C1COc2ccccc2O1.O=C(O)C(=O)O (stereo not shown),-34.4%
2,CCn1ccc(C(=O)Oc2ccc(Cl)cc2)n1,7.05%
3,O=C(Nc1cccc(Cl)c1)C1CCCN(S(=O)(=O)c2ccc(F)cc2)C1 (stereo not shown),-3.44%
4,CCOc1ccccc1N(CC(=O)NC1CCCCC1)C(=O)CCC(=O)Nc1cc(C)ccn1,9.49%
5,COC(=O)c1ccc(NC(=O)CSc2nnc(Cc3cccn3C)n2-c2ccc(F)cc2)cc1,-1.64%
6,CCc1nn2cc(C(=O)c3ccccc3O)cnc2c1-c1ccc(F)cc1,3.34%
7,COc1ccc(-c2nnc3c4ccccc4c(C)nn23)cc1S(=O)(=O)N1CCN(CCO)CC1,4.64%
8,COC(=O)[C@H](Cc1ccccc1)NC(=O)NCCc1ccc(S(N)(=O)=O)cc1,14.7%
9,CNC(=O)Oc1cccc(-c2cn3cc(Cl)ccc3n2)c1,0.907%
10,CN(C)S(=O)(=O)N1CCc2ccccc21,18.2%
11,Cc1ccc(C)c(C(=O)Nc2cc(C)nn2-c2nc(C)cc(C)n2)c1,10.8%
12,Cc1cccc2sc(N(CCN3CCOCC3)C(=O)CCS(=O)(=O)c3ccccc3)nc12.Cl,6.94%
13,COc1ccc(N(C(=O)c2ccncc2)S(=O)(=O)c2ccc3c4c(cccc24)C(=O)N3C)cc1,7.84%
14,Clc1ccc(-c2nnc(N3CCOCC3)o2)cc1,7.41%
15,O=C1Nc2ccccc2/C1=C/c1nc2ccccc2c(=O)n1-c1ccc(O)cc1,12.2%
16,COc1ccccc1NS(=O)(=O)c1cc([N+](=O)[O-])ccc1N/N=C/c1sc(N2CCOCC2)nc1-c1ccccc1,21.2%
17,Cc1cc(C(=O)CSc2nnc(-c3cccs3)o2)c(C)n1-c1ccccc1,15.5%
18,Cc1cc(C(=O)Nc2ccc(C#N)cc2)on1,13.5%
19,Nn1c(-c2ccccc2)cc(-c2ccccc2)cc1=O,2.26%
20,CC1=NN(C(=O)c2ccccc2Br)C(O)(c2cccnc2)C1 (stereo not shown),12.2%
21,CN(CC(=O)Nc1ccccc1C(=O)NC1CC1)Cc1cccs1,0.426%
22,COc1ccc2c(c1)c(CCN1C(=O)c3ccccc3C1=O)cn2C(=O)c1ccco1,15.5%

row,Structure (SMILES),"hERG current change (%, negative = inhibition) at 1uM"
1,CCn1c(=O)c(C(=O)Nc2ncccc2C)c(O)c2ccccc21,16.3%
2,C=CCOc1ccc(/C=C/C(=O)OCC(=O)N(C)CC(=O)Nc2ccc(F)cc2)cc1,9.85%
3,O=S(=O)(c1ccccc1)N1CCn2c(nc3ccccc32)C1,17.5%
4,Cc1cccc(C(=O)NC2CCN(C(=O)Nc3ccccc3C)CC2)c1,8.16%
5,Nn1c(SCC(=O)NC2CCCCC2)nnc1C1CC1,10.2%
6,CCOc1ccc(C2c3c(oc4cc(C)c(C)cc4c3=O)C(=O)N2CCCN(C)C)cc1OC (stereo not shown),4.1%
7,O=S(=O)(NC1CCCC1)c1ccc(-n2cnnn2)cc1,14.5%
8,CC1CCCN(C(=O)CN(c2ccccc2)S(=O)(=O)c2ccc(F)cc2)C1 (stereo not shown),3.54%
9,Cc1ccc(OCCNC(=O)CCC(=O)N2CCOCC2)cc1,13.1%
10,Cc1ccc(-c2nnn(CC(=O)N(c3cnc4ccccc4c3)C(C(=O)NC3CCCC3)c3ccncc3)n2)o1 (stereo not shown),13.3%
11,CC(=O)NC(c1ccc(Cl)cc1)c1c(O)ccc2ccc(O)cc12 (stereo not shown),13.3%
12,CN(c1ccccc1)S(=O)(=O)c1cccc(C(=O)NCCCN2CCCC2=O)c1,4.15%
13,CCOc1ccc(-c2c(C(=O)N/N=C/c3ccsc3)nnn2-c2nonc2N)cc1,10.4%
14,Cc1c(Cl)cccc1NC(=S)N(CCN(C)C)C(C)c1ccccn1 (stereo not shown),0.0607%
15,Cn1cnnc1SCC(=O)NCCc1ccc(Cl)cc1Cl,12.5%
16,O=C(NC1=NCCS1)Nc1ccccc1,0.274%
17,CC1CCCC(NC(=O)CCn2c(=O)oc3ccccc32)C1C (stereo not shown),-6.23%
18,Cc1ccc(C(=O)N/C(=C\c2cccs2)C(=O)NCCc2ccccn2)cc1C,9.59%
19,Cc1cc(C)cc(C(=O)NN2CCN(C)CC2)c1,27.1%
20,CC(=O)c1ccc(N/N=C2/CCCNC2=O)cc1,10.8%
21,Cc1c(CCC(=O)O)c(=O)oc2c(C)c3occ(-c4ccc(Cl)cc4)c3cc12,11.7%
22,O=C(Nc1ccc(NC(=O)c2cccs2)c(Cl)c1)c1ccco1,-15.6%

row,Structure (SMILES),"hERG current change (%, negative = inhibition) at 1uM"
1,COC(=O)c1ccc(/C=C/C(=O)c2ccc(OC)c(OC)c2)cc1,7.22%
2,COc1cccc(-c2cc(C(=O)Nc3cccnc3Cl)no2)c1,17.5%
3,CC(=O)N1[C@H](C)C=C[C@]1(Cc1ccccc1)C(=O)NCCc1c[nH]c2ccccc12,3.51%
4,CCOc1cc(/C=N/NC(=O)C(O)(c2ccccc2)c2ccccc2)ccc1OC(=O)c1ccco1,5.45%
5,CC(=O)Nc1ccc(NC(=O)C(C)OC(=O)CNC(=O)c2ccc(-c3ccccc3)cc2)cc1 (stereo not shown),13.4%
6,Cc1ccc(Cl)cc1NC(=O)c1ccccn1,1.33%
7,O=C(CCc1nc2ccccc2s1)OCC(=O)c1ccccc1,6.88%
8,COc1ccccc1OCCC(=O)OCC(=O)Nc1ncc(Cl)cc1Cl,9.13%
9,CC(=O)c1ccc(N2CCN(S(=O)(=O)c3cccc4nsnc34)CC2)cc1,19.2%
10,CCS(=O)(=O)N1CCC(NC(=O)C(Cc2ccc(OC)c(OC)c2)NC(C)=O)CC1 (stereo not shown),12.6%
11,CC1Cc2ccccc2N1C(=O)C1CCCCN1S(=O)(=O)c1ccccc1 (stereo not shown),-2.36%
12,Cc1nn(-c2ccccc2C(=O)O)c(=O)c2ccccc12,-0.599%
13,Cn1c(SCC(=O)Nc2ccc3[nH]c(=O)[nH]c3c2)nnc1-c1ccc(F)cc1,11.6%
14,O=C(CSCc1n[nH]c(=O)[nH]1)NCCOc1cccc(Oc2ccccc2)c1,11.4%
15,COc1ccc(CNC(=O)c2cc(=O)c3cc(C)cc(C)c3o2)cc1,11.4%
16,Cc1cccc(CN2CCN(C(=O)c3ccccc3F)CC2)c1,7.67%
17,CC1CC(C)CN(S(=O)(=O)N2CCC(C(=O)NCCc3ccccc3)CC2)C1 (stereo not shown),10.5%
18,Cc1ccc(NS(=O)(=O)c2cccc(C(=O)NCC3(N(C)C)CCCCC3)c2)cc1,-9.54%
19,COc1ccc(C(=O)C2CCCN(Cc3cnc(C)s3)C2)c(OC)c1 (stereo not shown),0.445%
20,C=C(C)C1CC=C(C)/C(=N/NC(=O)c2cccs2)C1 (stereo not shown),13.8%
21,COC(=O)c1ccc(N=Nc2ccccc2)cc1,4.68%
22,CCOc1cc(/C=C2\C(=N)N3N=C(CC)SC3=NC2=O)ccc1OCCOc1ccc(NC(C)=O)cc1,12.2%
